Several values for one entry are separate records, joined by “and”; a condition that tells them apart may be missing. Equal entries are not always repeated. Among all 410,000 compounds or so, about 7,200 (1.8%) were called active. Inconclusive means that the source gave no clear call. Such entries were picked first, then a sample of the others. Calls follow the shape of the dose curve; as a rule, active = well fitted activation curve with a large enough effect; inconclusive = small, poorly fitted or top-dose-only effect, or another doubt; inactive = no such curve, though single readings can be large or run the other way. A potency beside an inconclusive call is a rough fit, not a confirmed value.
Test: qHTS of TDP-43 Inhibitors; also: nearly all actives have a fitted effect of over 50% in size; as to growth rescue (activation): % of control where 0% means no effect
Settings: TDP-43 expressing yeast growth rescue, BacTiter-Glo, 24 h; growth rescue (activation): at 46.1 µM (top of the series) unless noted
How it was run: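 In this qHTS, compounds that restore growth of yeast expressing TDP-43 appear as activators. Cells (OD600=0.02, galactose medium, raffinose-pregrown) are incubated with compound 24 hr at 30 deg C and growth is quantified by BacTiter-Glo.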
Potency is read from the fitted curve at half-maximal effect; tags tell the direction and shape of the fitted curve.

Row | Structure (SMILES) | Potency | growth rescue (activation)
1 | COc1ccc([C@H]2CC(=O)C=C(c3cc(F)ccc3F)C2)cc1OC | active: 22.4 µM | 
2 | CCOC(=O)c1cnc2ccc(OC)cc2c1Nc1ccc(OCc2ccccc2Cl)cc1 | active: 20 µM | 
3 | Nc1ccc(CSc2ccc(Cl)cc2)c(Cl)c1 | inconclusive: 31.6 µM [activator, single point] | 
4 | CC1CCc2nc(NC(=O)Cc3cccs3)sc2C1 (stereo not given) | active: 28.2 µM | 
5 | COc1ccc([C@H]2CC(=O)C=C(c3cccc(Br)c3)C2)cc1OC | active: 35.5 µM | 
6 | COc1ccc(Cl)cc1Nc1ccc2cc(S(=O)(=O)N3CCCCC3)ccc2n1 | inconclusive: 15.8 µM [activator, partial curve] | 
7 | O=C(O)c1ccc(-n2cccc2)cc1O | inconclusive: 35.5 µM [activator, partial curve, poor fit] | 
8 | CC(C)(C)OC(=O)N1CCCN(C(c2cc3ccccc3o2)c2nnnn2C(C)(C)C)CC1 (stereo not given) | inconclusive: 22.4 µM [activator, partial curve] | 
9 | Cc1ccc(S(=O)(=O)N2CCC(C)CC2)c([N+](=O)[O-])c1 | active: 17.8 µM | 
10 | COc1ccc(-n2c(C)c3c(OC)cccc(=O)c3c2C)cc1 | inconclusive: 25.1 µM [activator, single point] | 
11 | Cc1cc(-c2ccccc2)nnc1NCCN1CCOCC1 | inconclusive: 8.91 µM [activator, full curve, poor fit] | 
12 | CCOC(=O)c1ccc(NC(=O)N2CC3CCCN3c3ccccc32)cc1 (stereo not given) | inconclusive: 15.8 µM [activator, single point] | 
13 | O=C(c1ccco1)N1CCN(C2CC(=O)N(c3ccc(F)c(Cl)c3)C2=O)CC1 (stereo not given) | inconclusive: 35.5 µM [activator, single point] | 
14 | C=C(C)COc1ccc(-c2[nH]ncc2Oc2ccccc2OCC)c(O)c1 | inconclusive: 15.8 µM [activator, single point] | 
15 | COc1ccccc1Cc1c(-c2ccc(OC)c(OC)c2)nc2c(C)cc(Br)cn12 | active: 17.8 µM | 
16 | COC(=O)C(Cc1ccc(O)cc1)NC(=O)c1ccccc1 (stereo not given) |  | inactive: -11%
17 | CC(=O)N1CCc2c(sc3c2c(=O)n(-c2ccccc2Cl)c(=O)n3Cc2cccc(C)c2)C1 | active: 35.5 µM | 
18 | Cc1cc(C(=O)N2CCC2(C)C(=O)NS(=O)(=O)c2cccc(Cl)c2)nn1C (stereo not given) | inconclusive: 6.31 µM [activator, partial curve] | 
19 | CN(NC(=O)c1ccccc1F)c1nc(C(F)(F)F)nc2ccccc12 | inconclusive: 14.1 µM [activator, single point] | 
20 | COc1cccc(-n2c(C)nc3cc(C(=O)O)ccc32)c1 | inconclusive: 17.8 µM [activator, partial curve] | 
21 | CCCN(CCC)C(=O)COc1cc(=O)n(CC)c2ccccc12 |  | inactive: 8.07%
22 | CC1CCCCN1C(=O)c1ccc2c(c1)N(Cc1ccc(F)cc1)C(=O)c1ccccc1S2(=O)=O (stereo not given) |  | inactive: 0.492%
23 | CC(=O)c1ccc(NC(=O)C2CC2c2ccccc2)cc1 (stereo not given) | inconclusive: 11.2 µM [activator, partial curve] | 
24 | COc1cccc(CC2(CO)CCCN(Cc3ccc(-c4ccco4)cc3)C2)c1 (stereo not given) | inconclusive: 31.6 µM [activator, single point] | 

Row | Structure (SMILES) | Potency | growth rescue (activation)
25 | Cc1cc(OCC(=O)N2CCC(c3nc4ccccc4s3)CC2)ccc1Cl | inconclusive: 31.6 µM [activator, single point] | 
26 | Cc1ccc(N2CCN(C(=O)c3ccccc3Br)CC2)c(C)c1 | active: 15.8 µM | 
27 | Cc1noc(C)c1COC(=O)c1ccc(N(C)C)cc1 | inconclusive: 7.08 µM [activator, partial curve] | 
28 | Cc1c(-c2ccccc2)nnn1-c1ccc(F)cc1F | inconclusive: 7.94 µM [activator, partial curve] | 
29 | Cc1nn(-c2ccccc2)c(C)c1NC(=O)COc1cc(F)ccc1[N+](=O)[O-] | inconclusive: 35.5 µM [activator, partial curve, poor fit] | 
30 | Cc1c(/C=C/C(=O)c2ccc(Cl)s2)cnn1C | active: 12.6 µM | 
31 | Cc1cc(C(C)(C)C)oc1C(=O)N1CCN(C(=O)c2oc(C(C)(C)C)cc2C)CC1 |  | inactive: 24.2%
32 | CCC1CCc2c(sc(NC(=O)c3ccoc3C)c2C(N)=O)C1 (stereo not given) | inconclusive: 12.6 µM [activator, single point] | 
33 | O=C(C1CCCCC1)N1CCC(n2nnc3ccccc32)CC1 | inconclusive: 35.5 µM [activator, single point] | 
34 | O=C(Cn1ncc(Cl)c(Cl)c1=O)c1ccc2c(c1)OCCO2 | active: 22.4 µM | 
35 | CC/C(=C(/CC)c1ccc(O)cc1)c1ccc(O)cc1 | inconclusive: 20 µM [activator, partial curve] | 
36 | COc1ccc(CNC(=O)c2cc3c(-c4ccccc4F)nn(C)c3s2)cc1 | inconclusive: 35.5 µM [activator, single point] | 
37 | COC(=O)c1ccc2nc(-c3ccccc3)c(Cc3ccc(C)cc3)n2c1 | active: 12.6 µM | 
38 | CC1CCCCN1S(=O)(=O)c1ccc(NC(=O)c2cccc(-n3cnnn3)c2)cc1 (stereo not given) |  | inactive: 17.8%
39 | Cc1ccc(-c2cn3c(n2)sc2cc(C(=O)NC4CCCc5ccccc54)ccc23)cc1 (stereo not given) | inconclusive: 1 µM [activator, partial curve] | 
40 | COc1ccc(Nc2nc(-c3sc(C)nc3C)cs2)cc1 | active: 20 µM | 
41 | Cn1c(N)c(C(=O)COC(=O)CNC(=O)c2ccccc2Cl)c(=O)n(C)c1=O |  | inactive: 4.93%
42 | Cc1ccc2cc3c(nc2c1)N(c1ccccc1)CC3 | inconclusive: 12.6 µM [activator, partial curve] | 
43 | CCCCCCCCC(=O)c1c(OC)oc(C=O)cc1=O | inconclusive: 1.41 µM [activator, partial curve] | 
44 | Cc1nnc(NC(=O)CSc2nccn2-c2cccc(C)c2C)s1 | inconclusive: 35.5 µM [activator, partial curve] | 
45 | Cc1cc(NC(=O)C(C)C)ncc1NC(=O)CCc1ccccc1 | inconclusive: 35.5 µM [activator, single point] | 
46 | CN(C)C(=S)NCc1ccccc1 | inconclusive: 5.62 µM [activator, partial curve] | 
47 | COC(=O)CSc1nc2ccc(NC(C)=O)cc2s1 |  | inactive: -16.1%
48 | CC(C)(C)c1ccc(CC(=O)N2CCC2(C)C(=O)NS(=O)(=O)c2ccc3c(c2)CCO3)cc1 (stereo not given) | inconclusive: 35.5 µM [activator, partial curve, poor fit] | 

Row | Structure (SMILES) | Potency | growth rescue (activation)
49 | Cn1nc(C(=O)N2CCN(c3ccc(Cl)cc3)CC2)c2c1-c1ccccc1S(=O)(=O)C2 | inactive and inconclusive: 35.5 µM [activator, single point] | 
50 | COc1ccc2c(c1)c1c(c(=O)n(-c3ccc(F)c(Cl)c3)c(=O)n1CC(N)=O)n2C | inconclusive: 0.355 µM [activator, full curve, poor fit] | 
51 | CCC1CN(C(=O)Nc2cccc(OC)c2)c2ccccc2O1 (stereo not given) |  | inactive: 30%
52 | O=C(N1CCN(c2ccccc2F)CC1)C1(c2cccs2)CCOCC1 | inconclusive: 12.6 µM [activator, partial curve] | 
53 | Cc1cc(C)c2c(N)c(S(=O)(=O)Cc3ccccc3)sc2n1 | inconclusive: 12.6 µM [activator, partial curve] | 
54 | COc1ccc(CN(Cc2ccco2)C(=O)c2ccccc2F)cc1 | inconclusive: 35.5 µM [activator, single point] | 
55 | CC1CCCC(NC(=O)CSc2ncnc3ccccc23)C1C (stereo not given) | active: 14.1 µM | 
56 | CC1(C(=O)NS(=O)(=O)c2ccc(F)cc2F)CCN1C(=O)C1(c2ccc(Cl)cc2)CCC1 (stereo not given) | inconclusive: 35.5 µM [activator, single point] | 
57 | CCN(c1nc(C)cc(OC)n1)S(=O)(=O)c1ccccc1 | inconclusive: 7.94 µM [activator, partial curve] | 
58 | CCOC(=O)C1CCN(C2CC(=O)N(c3cccc(Cl)c3)C2=O)CC1 (stereo not given) |  | inconclusive: -92.5% [activator]
59 | COc1ccc(C(=O)NCCn2ccc3ccccc32)c(OC)c1 | inconclusive: 17.8 µM [activator, single point] | 
60 | CCOC(=O)c1c(C)oc2nc(C)nc(N3CCN(c4ccccc4F)CC3)c12 | inconclusive: 35.5 µM [activator, partial curve, poor fit] | 
61 | C=CCOc1ccc(-c2n[nH]c(=S)o2)cc1 |  | inconclusive: -71.6% [activator]
62 | COc1cc(/C=C/C(=O)c2c(O)ccc3c(C)cc(=O)oc23)ccc1O | inconclusive: 7.08 µM [activator, full curve] | 
63 | Cc1cccc(N2CCN(C(=O)C3CCN(C(=O)c4cc5sccc5n4C)CC3)CC2)c1C | active: 35.5 µM | 
64 | O=C(Cn1c(SCC(=O)NC2CCCC2)nnc1-c1ccncc1)Nc1ccc2c(c1)OCO2 | inconclusive: 35.5 µM [activator, single point] | 
65 | O=C(Nc1nnc(-c2ccc(Cl)cc2)o1)c1ccccc1Br | active: 7.08 µM | 
66 | Cc1ccc2nc(-c3cccc(SC4CCCCC4)c3)c(NCc3ccccc3)n2c1 | inconclusive: 22.4 µM [activator, partial curve] and inconclusive: 17.8 µM [activator, single point] | 
67 | O=C(NOC(=O)c1ccccc1Cl)c1cccs1 | inconclusive: 12.6 µM [activator, single point] | 
68 | CN(C)c1ncnc2sc(-c3ccccc3)cc12 |  | inactive: 24.6%
69 | O=C(Nc1cccnc1Cl)c1cc2c(s1)-c1ccccc1OC2 | inconclusive: 0.316 µM [activator, full curve] | 
70 | S=c1nc(COc2ccccc2)[nH]c2ccccc12 | inconclusive: 22.4 µM [activator, partial curve] | 
